# Several values for one entry are separate records, joined by “and”; a condition that tells them apart may be missing. Identical values can stand only once. Inconclusive means that the source gave no clear call. Such entries were picked first, then a sample of the others. A potency beside an inconclusive call is a rough fit, not a confirmed value. Activity calls are given as the source filed them. Calls follow the shape of the dose curve; as a rule, active = well fitted inhibition curve with a large enough effect in the repeat runs; inconclusive = weak or mixed curves; inactive = flat fitted curve, though single readings scatter.
# Target: Luciferin 4-monooxygenase (Photinus pyralis) (UniProt P08659)
# Sequence of UniProt P08659 (P08659 whole entry, looked up): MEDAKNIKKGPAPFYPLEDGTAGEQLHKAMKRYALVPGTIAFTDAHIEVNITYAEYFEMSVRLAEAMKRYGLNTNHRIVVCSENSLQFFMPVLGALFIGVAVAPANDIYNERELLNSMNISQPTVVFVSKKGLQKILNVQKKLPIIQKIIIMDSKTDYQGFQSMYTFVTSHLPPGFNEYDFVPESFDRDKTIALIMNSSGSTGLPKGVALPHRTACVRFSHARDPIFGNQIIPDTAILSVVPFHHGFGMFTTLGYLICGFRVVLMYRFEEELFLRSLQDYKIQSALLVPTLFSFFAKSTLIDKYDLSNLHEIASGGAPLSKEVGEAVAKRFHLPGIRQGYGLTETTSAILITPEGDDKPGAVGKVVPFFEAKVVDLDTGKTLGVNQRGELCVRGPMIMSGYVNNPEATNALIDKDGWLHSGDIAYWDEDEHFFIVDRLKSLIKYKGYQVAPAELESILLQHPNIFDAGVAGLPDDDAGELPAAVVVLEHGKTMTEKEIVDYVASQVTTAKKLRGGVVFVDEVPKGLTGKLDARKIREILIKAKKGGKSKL
# Assay: qHTS assay to identify small molecule inhibitors of firefly luciferase (AID 1224835); also: nearly all actives have a fitted effect of over 25% in size
# Conditions: purified P. pyralis luciferase, luminescence inhibition; series mostly up to 115 µM; activity change, negative = inhibition: at the top concentration
# Method in brief: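 Quantitative HTS format; KM concentrations of both substrates. Purified P. pyralis FLuc activity quantified from luminescence images.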
# % is scaled to controls: 0 for no effect and ±100 for the full control effect; potency is read from the fitted curve at half-maximal effect; tags tell the direction and shape of the fitted curve.
Compound,Potency,"activity change, negative = inhibition"
OC(Cc1ccccc1Cl)(Cn1[nH]cnc1=S)C1(Cl)CC1 (stereo not given),"inconclusive: 71 µM [inhibitor, partial curve]",
Nc1ccc(Cc2ccc(N)c(Cl)c2)cc1Cl,inconclusive: 61.2 µM [inhibitor],
Oc1c(Br)c(Br)c(Br)c(Br)c1Br,"inconclusive: 90 µM [inhibitor, single point]",
Oc1cc(Cl)c(Cl)c(Cl)c1Cl,"inconclusive: 87.3 µM [inhibitor, single point]",
N#Cc1cc(I)c(O)c(I)c1,inconclusive: 39.9 µM [inhibitor],
O=C(O)C1(c2ccc3c(c2)OC[C@H](Cc2ccc(-c4ccccc4)cc2)[C@H]3O)CCCC1,active: 71 µM,
COC(=O)N(OC)c1ccccc1COc1ccn(-c2ccc(Cl)cc2)n1,inconclusive: 39.9 µM [inhibitor],
O=c1[nH]c(=O)[nH]c(=O)[nH]1,inactive,
O=C(CBr)c1ccc(O)cc1,"inconclusive: 39.9 µM [inhibitor, partial curve]",
Nc1ccc(N)cc1,"inconclusive: 38.9 µM [inhibitor, single point] and inconclusive: 38.9 µM [inhibitor, partial curve, poor fit]",
Cc1ccc(-c2c(Cl)nc(C#N)n2S(=O)(=O)N(C)C)cc1,active: 35.6 µM,
Nc1ccc(Cl)cc1C(=O)c1ccccc1,"inconclusive: 44.8 µM [inhibitor, partial curve, poor fit]",
CCOP(=S)(OCC)SCn1c(=O)oc2cc(Cl)ccc21,"inconclusive: 63.3 µM [inhibitor, partial curve]",
O=[N+]([O-])c1ccc(Oc2ccc(Cl)cc2Cl)cc1,"inconclusive: 101 µM [inhibitor, single point]",
CCOS(=O)(=O)OCC,"inconclusive: 89.5 µM [inhibitor, partial curve, poor fit]",
Cc1cc(C2CC2)nc(Nc2ccccc2)n1,active: 39.9 µM,
O=[N+]([O-])c1cc(C(F)(F)F)cc([N+](=O)[O-])c1Cl,,inactive: -3.13%
COP(=S)(OC)Oc1cc(Cl)c(Cl)cc1Cl,"inconclusive: 28.1 µM [inhibitor, partial curve] and inactive",
Oc1ccc(Cl)c(Cl)c1Cl,inconclusive: 82.6 µM [inhibitor],
CC[C@H]1C[C@H]2[C@@H]3CCC4=CC(=O)CC[C@@H]4[C@H]3CC[C@]2(C)[C@H]1O,"inconclusive: 17.4 µM [inhibitor, partial curve, poor fit]",
